The supplement of paper PMC4166925
± gives the standard deviation of the averaged measurements. Over roughly 33,000 sequences, “E-score (dimensionless, -0.5 to 0.5)” has its median near -0.049; the highest 2% begin near 0.37. Some of the results follow.

Each sequence was assayed on T1, PmTbr T-box DNA-binding domain (GST fusion) (assay: PBM E-score of 8-mer (E-score (dimensionless, -0.5 to 0.5)); Tbr is Tbrain of the sea star Patiria miniata (Pm) or the sea urchin Strongylocentrotus purpuratus (Sp); higher = stronger binding preference; most listed sequences are background and not binding sites). Details: the construct has about 5 more residues each side.
T1 sequence: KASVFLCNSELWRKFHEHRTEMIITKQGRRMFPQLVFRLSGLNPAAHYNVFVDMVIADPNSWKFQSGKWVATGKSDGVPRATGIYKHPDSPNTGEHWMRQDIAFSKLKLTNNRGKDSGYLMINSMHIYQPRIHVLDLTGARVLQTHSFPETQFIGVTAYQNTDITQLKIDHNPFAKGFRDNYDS
In short: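 Expression of GST-fused Tbr T-box DNA-binding domains, each holding the full T-box plus roughly five flanking residues, was carried out in BL21 E. coli at 20 °C, with purification by glutathione affinity chromatography. Universal Agilent arrays made double-stranded by primer extension were incubated with the protein at 200 nM in PBS (pH 7.5), then scanned and quantified. All ungapped 8-mers were scored from probe intensities, and each received an enrichment E-score from the Universal PBM Analysis Suite, averaged over duplicate arrays.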

Sequence | PBM E-score of 8-mer
CAGATGAC | -0.0423 ± 0.069
AACGGCAT | -0.154 ± 0.03
ACAACAGT | 0.0982 ± 0.0056
ACTCAAAC | -0.241 ± 0.066
GACTTACC | -0.15 ± 0.018
CTCAGCGC | 0.119 ± 0.015
GGGGGGTA | -0.279 ± 0.061
AACAATTG | 0.2 ± 0.064
GGCCCCCA | -0.286 ± 0.064
CTACTAGC | 0.0573 ± 0.034
ACGACCCC | -0.153 ± 0.12
GATGCTGA | -0.0763 ± 0.018
ACGGAAAG | -0.123 ± 0.013
GACGCTAC | 0.0711 ± 0.045
ACTAACCT | -0.0151 ± 0.031
CTTACCAA | -0.152 ± 0.0032
CTATACCC | -0.123 ± 0.056
TGTCACAA | 0.369 ± 0.04
CCAACACG | 0.274 ± 0.0077
GCCTGTCC | -0.168 ± 0.029
CGGACGAG | -0.166 ± 0.0031
AATGAATA | -0.109 ± 0.078
GTACCGCA | -0.144 ± 0.035
TCTTCACA | 0.377 ± 0.015
CGCACAAC | 0.119 ± 0.1

Sequence | PBM E-score of 8-mer
ATCTCCGA | -0.283 ± 0.029
GTGATATA | 0.228 ± 0.0044
CACCTAGC | 0.418 ± 0.0047
ACTGAGTC | -0.0611 ± 0.06
ATGAAGCC | -0.291 ± 0.026
AGGAATTG | -0.0432 ± 0.0082
GGCCGCGA | 0.059 ± 0.048
CCGAGTAG | -0.171 ± 0.034
ATCCCGGG | 0.00312 ± 0.013
CAGCTGAA | -0.024 ± 0.019
AGTACCCA | -0.177 ± 0.032
TCCTTAAA | -0.212 ± 0.013
CTGCTCCC | -0.0484 ± 0.044
AAAAGCTA | -0.101 ± 0.02
ATAAAGTA | -0.0182 ± 0.067
CACCCTCA | 0.298 ± 0.0064
ACGCCCGG | 0.0945 ± 0.077
GGGTTTTA | -0.211 ± 0.095
CGGGGCTA | -0.258 ± 0.01
AAGTCTTG | 0.0645 ± 0.0093
CTTTACTC | -0.0347 ± 0.045
CTCCAAGC | -0.0496 ± 0.044
GGGCGCGA | 0.409 ± 0.02
AGAGGAAG | -0.183 ± 0.071
CATACATG | -0.123 ± 0.0066

Sequence | PBM E-score of 8-mer
ATGTTACG | 0.1 ± 0.0049
ACTCGCAA | 0.279 ± 0.018
CAGCCTCC | -0.255 ± 0.081
CCCGCGGC | -0.0345 ± 0.072
CCCTCAGC | -0.0931 ± 0.0017
AAATCACG | 0.209 ± 0.011
AGCCCCGG | -0.359 ± 0.042
GGCCTCAA | -0.252 ± 0.027
GATCAACA | 0.133 ± 0.01
CGTGAGAC | 0.258 ± 0.044
AAACCTGG | 0.119 ± 0.037
CACGAGCA | -0.0317 ± 0.022
ATCCGCGC | 0.15 ± 0.057
TCCGCAGA | -0.123 ± 0.012
AATCTCGG | -0.154 ± 0.099
ACTCACCT | 0.277 ± 0.026
AAAGAGCA | -0.2 ± 0.047
GTTACCAA | 0.132 ± 0.073
ACAGAGTC | -0.0931 ± 0.054
GTTGCTCA | 0.0245 ± 0.051
GAGTTTCC | -0.227 ± 0.046
CGGGACAG | -0.0992 ± 0.082
AGCGCCAA | 0.225 ± 0.013
CCGAGAGA | -0.0578 ± 0.037
CGGACAGC | -0.127 ± 0.094

Sequence | PBM E-score of 8-mer
AACTCATA | -0.0686 ± 0.049
AGTTATAT | -0.0486 ± 0.05
ACGCGCGA | 0.3693 ± 0.0027
GTACGAAA | 0.127 ± 0.066
ACTCTAGG | -0.109 ± 0.012
GAACTATA | -0.22 ± 0.041
AGGGCCTG | -0.183 ± 0.029
GAACATTA | -0.0348 ± 0.063
ATTGCCTG | -0.196 ± 0.12
AACTGATG | 0.0361 ± 0.047
CACGGATG | 0.0888 ± 0.0054
CCATCACA | 0.331 ± 0.023
AAGCGCCC | -0.0238 ± 0.0037
AAAGGGTA | -0.131 ± 0.079
TCAAATCA | -0.159 ± 0.042
CGAGTCTA | -0.226 ± 0.063
CAAGGGGA | -0.0708 ± 0.017
AAAAACCT | -0.0792 ± 0.056
CTGCCCGA | -0.0419 ± 0.069
AGTATTAG | -0.0488 ± 0.059
AGCAACCA | -0.0688 ± 0.013
CGGTGACC | 0.08 ± 0.029
AAATCGGC | -0.118 ± 0.01
CAATGTCC | -0.128 ± 0.037
ATCAGCCC | -0.282 ± 0.03

Sequence | PBM E-score of 8-mer
CCATATTC | 0.000255 ± 0.05
ACCTTCGG | 0.058 ± 0.028
AAAGGAAA | -0.041 ± 0.03
ATGTAACA | 0.101 ± 0.044
CTCGGCGA | -0.0993 ± 0.029
GTGTTTCA | 0.184 ± 0.031
GCTATAAC | 0.0477 ± 0.024
AGGAAGGC | -0.131 ± 0.03
GCCTGAAC | -0.2927 ± 0.0014
CCCCACCC | 0.043 ± 0.035
CCCTACGC | 0.00649 ± 0.0033
CTTCAGAA | -0.231 ± 0.037
GGGCCACC | -0.119 ± 0.054
AAATCTAA | 0.0207 ± 0.011
AGTTTTGA | 0.0783 ± 0.18
ACTCCAAC | 0.0965 ± 0.02
GATCCTCC | -0.00438 ± 0.035
ACTCTAAT | -0.176 ± 0.017
GCAGCAAA | -0.0315 ± 0.052
GGGATTGA | -0.166 ± 0.017
CGGGGGGC | -0.265 ± 0.051
GGGCCCAA | -0.154 ± 0.022
CACGTGTC | 0.385 ± 0.0079
GTGCCAGA | 0.264 ± 0.0078
GGTATGCA | -0.000535 ± 0.05

Sequence | PBM E-score of 8-mer
CGGTATAC | -0.0592 ± 0.023
AGAGGCCT | -0.304 ± 0.0057
ATCGATGG | -0.127 ± 0.0068
AAGGTTGC | -0.124 ± 0.038
GCCTCACC | 0.0769 ± 0.049
GGCTCGAC | -0.0066 ± 0.043
CAGTATGC | -0.0463 ± 0.087
TATCTCGA | -0.176 ± 0.061
AGTGTAAA | 0.287 ± 0.081
CGCTTGGA | -0.218 ± 0.0055
GGCGTGTA | -0.00404 ± 0.066
ATCGTAAA | -0.0188 ± 0.098
GCAACGCA | 0.175 ± 0.056
CTGGGTGA | 0.0344 ± 0.14
CGGTGTCC | -0.00395 ± 0.072
TGCCCTAA | -0.202 ± 0.0062
AAGATAAC | -0.0219 ± 0.03
ACTTTTTA | -0.0453 ± 0.12
GCAGCGCC | 0.188 ± 0.045
ACGTAGCT | -0.0936 ± 0.084
GCATAAAC | -0.0902 ± 0.15
ATCCTGTC | 0.0676 ± 0.078
ATAGCTCA | -0.199 ± 0.061
AACATAGT | -0.245 ± 0.0077
CACTAAGA | 0.0202 ± 0.013

Sequence | PBM E-score of 8-mer
CGGGCCAA | -0.0985 ± 0.065
AGCTGATA | 0.0126 ± 0.061
AAAAAGAC | -0.0261 ± 0.09
TCAGACGA | -0.314 ± 0.0055
AAGAGGAC | -0.15 ± 0.031
CACATCAC | 0.291 ± 0.023
CTAAGTAC | -0.0284 ± 0.1
AAGAGCGG | -0.123 ± 0.028
AGAGCAAT | -0.215 ± 0.018
TCACCCGA | 0.0689 ± 0.025
CACCTTTC | 0.411 ± 0.034
ATATTTAA | -0.214 ± 0.0091
GACATTGC | 0.0492 ± 0.027
ATGGTCCC | -0.284 ± 0.0061
CGGTACTC | -0.255 ± 0.024
TACCATCA | -0.0204 ± 0.05
ATAATAAA | -0.255 ± 0.029
AGGGGACC | -0.326 ± 0.026
CGCTTTGA | -0.2292 ± 0.0011
CTAATACC | 0.00336 ± 0.027
ATTAGTTG | -0.0682 ± 0.0052
GCCTACTA | -0.0394 ± 0.049
